System: human serpinB13 and other clade B serpins
Test: Specificity of human anti-serpinB13 antibodies (ELISA, Luminex-based assay)
Type: binding
Conditions: Luminex at 1.0 μg/mL
Procedure: Human anti-serpinB13 mAbs bind specifically to serpinB13, but not to other members of the clade B protein family. To produce human antibody to serpinB13, three rounds of biopanning were performed, using Fab library (1×10^11 antibody specificities), against recombinant human serpinB13 produced in baculovirus and immobilized on solid matrix. Screening of individual clones by ELISA led to DNA fingerprinting and sequencing of three unique clones. Positive antibodies were tested by ELISA for binding to the target antigen and cross-reactivity with other proteins. The Fab fragments were then reformatted into fully human full-length IgG1. […] It was also noticed that these mAbs recognize both mouse and human serpinB13.
Recombinant proteins and their expression. […]
Luminex assay. […] The data were expressed as fluorescence intensity (F.I.) due to serum binding activity in the presence of beads precoated with serpinB13 and after subtracting the average F.I. due to serum binding activity in the presence of beads precoated with control proteins, Gfp and Scgn (e.g. F.I^B13−[F.I.^GFP+F.I.^Scgn]/2). The samples were evaluated based on the level of F.I. and the degree of inhibition of binding to serpin-B13 coated beads with soluble serpinB13 (2.5 μg/mL), compared with the bovine serum albumin (BSA). […]

B1: mAbs1: fully human full-length IgG1 to serpinB13; Clone1 heavy SEQ ID NO:31, light SEQ ID NO:37 (antibody)
heavy: QVQLQESGGGVVQPGRSLRLSCAASGFTFSSYGMHWVRQAPGKGLEWVAVISYDGSNKYYADSVKGRFTISRDNSKNTLYLQMNSLRAEDTAVYYCARDLGAVIAVAGTSTPYNWFDPWGQGTLVTVSS[human IgG1 constant region omitted]
light: DVVMTQSPLSLPVTPGEPASISCRSRQSLLHSNGHNYLGWYLQKPGQSPQLLIYLASIRASGIPDRFSGSGSGTDFTLKISRVEAEDVGVYYCMQALQTPYTFGQGTKLEIKRTVAAPSVFIFPPSDEQLKSGTASVVCLLNNFYPREAKVQWKVDNALQSGNSQESVTEQDSKDSTYSLSSTLTLSKADYEKHKVYACEVTHQGLSSPVTKSFNRGEC
Q: How did the “specificity of binding: serpinB13 versus other clade B serpins” value turn out when B1 was run?
A: specifically recognize human serpinB13 but no other serpins of clade B family

From patent publication US12441811B2, “Compositions and methods for treating serpin B13 disorders” (REGENTS OF THE UNIVERSITY OF MINNESOTA, priority 2019, dated 2025)
